Some of the results follow.
What was measured:
HSkMC = human skeletal muscle cells; experiment: cytotoxicity call (relative viability < 0.9); conditions: 10 µM
HepG2 = experiment: cytotoxicity call (relative viability < 0.9); conditions: 10 µM
S. aureus RN4220 = experiment: growth inhibition call (relative growth <= 0.2); conditions: 50 µM

SMILES	cytotoxicity call (HSkMC)	cytotoxicity call (HepG2)	growth inhibition call (S. aureus RN4220)
CSC(=N)Nc1csc(C(F)(F)F)c1-c1ccccc1	inactive	inactive	inactive
C=CC[C@@H](CC(=O)N[C@@H](CO)Cc1ccccc1)C(=O)N[C@H](C)COC(=O)[C@H](CC=C)CC(=O)OC(C)(C)C	inactive	inactive	inactive
C[C@@H]1CN([C@@H](C)CO)C(=O)c2cc(NC(=O)Nc3ccccc3)ccc2O[C@H]1CN(C)Cc1ccc(Cl)c(Cl)c1	inactive	active	inactive
COc1cc2nccc(Oc3ccc(NC(=O)C4(C(=O)Nc5ccc(F)cc5)CC4)cc3)c2cc1OC	active	inactive	inactive
CCCCCCCCCCCCCCCCOc1nc2ccc(C)cc2c(=O)o1	inactive	inactive	inactive
CCCCCCCCc1ccc(-c2ccc(C(=O)O)cc2)cc1	inactive	inactive	inactive
c1ccc2c(-c3ccncc3)c[nH]c2c1	inactive	inactive	inactive
C[C@H](CO)N1C[C@H](C)[C@H](CN(C)Cc2ccc3c(c2)OCO3)Oc2ncc(C#CCN(C)C)cc2C1=O	inactive	inactive	inactive
Cc1noc(C)c1NC(=O)N(C)C[C@H]1OCCCC[C@H](C)Oc2ccc(NC(=O)Nc3ccc(F)cc3)cc2C(=O)N([C@H](C)CO)C[C@@H]1C	inactive	inactive	inactive
C[C@@H]1CN([C@@H](C)CO)C(=O)c2cccc(NC(=O)c3cnccn3)c2O[C@H]1CN(C)S(=O)(=O)c1ccccc1	inactive	inactive	inactive
C[C@@H]1CN([C@@H](C)CO)C(=O)c2cc(NS(=O)(=O)c3cn(C)cn3)ccc2O[C@@H](C)CCCCO[C@H]1CN(C)Cc1ccc(C(F)(F)F)cc1	inactive	inactive	inactive
Cc1ccc(S(=O)(=O)Nc2ccc3c(c2)CC(=O)N([C@H](C)CO)C[C@@H](C)[C@H](CN(C)S(C)(=O)=O)O3)cc1	inactive	inactive	inactive
O=C(O)c1cc(-c2ccccc2)nc2ccccc12	inactive	inactive	inactive
C[C@@H]1CN([C@@H](C)CO)C(=O)c2cccc(NC(=O)Nc3ccc4c(c3)OCO4)c2O[C@@H]1CN(C)Cc1ccc(C(F)(F)F)cc1	inactive	inactive	inactive
O=S1(=O)CO[C@@H](c2ccccc2)CN1	inactive	inactive	inactive
CC(C)NC(=O)Nc1ccc2c(c1)C(=O)N([C@@H](C)CO)C[C@@H](C)[C@H](CN(C)CC1CCCCC1)OCCCC[C@H](C)O2	inactive	inactive	inactive
C[C@@H]1CCCCO[C@H](CN(C)C(=O)Cc2ccccc2)[C@@H](C)CN([C@@H](C)CO)C(=O)c2cc(NS(=O)(=O)c3ccc(F)cc3)ccc2O1	inactive	inactive	inactive
C/C=C/c1cccc(-c2nc(C(=O)NCc3ccc(OC)cc3)cc3c2[C@@H](CCO)N([S@@](=O)C(C)(C)C)C3)c1	inactive	inactive	inactive
CC(C)NC(=O)N(C)C[C@H]1Oc2c(NC(=O)C3CCCCC3)cccc2C(=O)N([C@@H](C)CO)C[C@H]1C	inactive	inactive	inactive
C[C@@H]1CN([C@@H](C)CO)C(=O)Cc2cc(NC(=O)Cn3cnnn3)ccc2O[C@@H]1CN(C)C(=O)Nc1ccc(F)cc1	inactive	inactive	inactive
C[C@@H]1CCCCO[C@@H](CN(C)S(=O)(=O)c2cccs2)[C@@H](C)CN([C@@H](C)CO)C(=O)c2cc(NC(=O)CCC(F)(F)F)ccc2O1	inactive	inactive	inactive
C#CC1(O)CCC2C3CCc4cc(O)ccc4C3CCC21C (centres undefined)	inactive	active	inactive
C[C@H](CO)N1C[C@H](C)[C@H](CN(C)S(C)(=O)=O)Oc2ncc(C#CCN(C)C)cc2C1=O	inactive	inactive	inactive
CC(C)NC(=O)Nc1ccc2c(c1)C(=O)N([C@@H](C)CO)C[C@H](C)[C@H](CN(C)S(=O)(=O)c1ccc(Cl)cc1)O2	inactive	inactive	inactive
C[C@H]1CN([C@@H](C)CO)C(=O)c2cc(C#CC3CCCC3)cnc2O[C@H]1CN(C)C(=O)Cc1ccccn1	inactive	inactive	inactive
Cc1noc(C)c1NC(=O)Nc1cccc2c1O[C@@H](CN(C)S(C)(=O)=O)[C@H](C)CN([C@@H](C)CO)C2=O	inactive	inactive	inactive
C=CCSCC=C	inactive	inactive	inactive
COc1ccc(CN(C)C[C@@H]2OCCCC[C@H](C)Oc3ccc(NS(=O)(=O)c4ccc(F)cc4)cc3C(=O)N([C@@H](C)CO)C[C@@H]2C)cc1	inactive	inactive	inactive
